Molecules are shown by their SMILES. The list shows a part of the results. These are further read-outs of the screen, such as a control signal, another cell line or another target. No call is given for them.

This is an account of results in PubChem BioAssay AID1745853 (National Center for Advancing Translational Sciences (NCATS), 2022).

What all share (experiment): Primary Screen for Target Class Profiling of Small Molecule Inhibitors of Methyltransferases
Assay [1] has as its target Glycine N-methyltransferase (Homo sapiens) (UniProt Q14749). Particulars: purified enzyme, MTase-Glo SAH luminescence; measured here: GNMT inhibition; at 40 µM; stronger effect = lower value. An excerpt: (§1) PI: Matthew D. Hall Ph.D. and Quinlin M. Hanson Ph.D.
(§2) National Center for Advancing Translational Sciences (NCATS)
(§3) National Institute of Health (NIH), Rockville, MD
(§4) Target class profiling (TCP) is a chemical biology approach amenable to investigating understudied biological targets. TCP is achieved by developing a generalizable assay platform and applying it to screen a curated set of compound libraries against representative members of a target class. Small molecule methyltransferases (SMMTase) are a subclass of methyltransferase that act on metabolites to modulate signaling pathways, metabolize xenobiotics, or balance the available methyl pool. We screened four curated libraries totaling 27,574 unique compounds against the SMMTases nicotinamide N-methyltransferase (NNMT), phenylethanolamine N-methyltransferase (PNMT), histamine N-methyltransferase (HNMT), glycine N-methyltransferase (GNMT), catechol O-methyltransferase (COMT), and guanidinoacetate N-methyltransferase (GAMT). The data generated by this TCP can be leveraged for informed tool molecule development. For example, in the associated publication we identified a chemotype of HNMT-selective inhibitors. Additionally, we identified a putative SMMTase-selective inhibitor with potential as a tool molecule for studying broader methyltransferase biology.
(§5) High-through put screening assays were developed at the National Center for Advancing Translational Science (NCATS) for the enzymes NNMT, PNMT, HNMT, GNMT, COMT, and GAMT. Enzymatic activity was measured as a function of SAM cofactor conversion using the MTase Glo kit (Promega) for all enzymes. All assays were performed in 1536-well format with substrates and SAM concentrations at KM values. Enzyme concentration and assay timing were optimized for 10-20% SAM conversion. Initial screening of 27,574 compounds was done as single-point assays using the highest compound concentration (40 uM). […] These compounds were replated in 11-point dose response and assayed against NNMT, PNMT, HNMT, GNMT, COMT, GAMT, and a counter-assay. The IC50 and efficacy (maximal response) values were determined for each dose-response curve. These values are also accounted for in the area under the curve (AUC) values.
(§6) PROTOCOL TABLE (as described by Inglese J, Shamu CE and Guy RK. 2007)
(§7) SEQUENCE No. (e.g., 1, 2, 3, etc.); […] (e.g., Cells, Incubation, Reagent, etc.); VALUE; DESCRIPTION.
(§8) 1; Reagent; 2 uL; SMMTase Enzyme (2x) in reaction buffer, columns 1- 48.
(§9) 2; Reagent; 1 uL; SAM (4x) in reaction buffer, columns 1-48.
(§10) 3; Controls; 23 nL; DMSO in column 4; sinefungin in DMSO (0 uM - 40 uM) in 7-point 1:2 dilution series (n = 2) in column 2.
(§11) 4; Compounds; 23 nL; Columns 5-48.
(§12) 5; Reagent; 1 uL; Substrate (4x) in reaction buffer, columns 2-48.
(§13) 6; Time; 20-30 min; Incubation.
(§14) 7; Reagent; 1 uL; MTase-Glo reagent (5X), columns 1-48.
(§15) 8; Time; 30 min; Incubation.
(§16) 9; Reagent; 5 uL; MTase-Glo Detection reagent, columns 1-48.
(§17) 10; Time; 30 min; Incubation, luminescence evolution.
(§18) 11; Detection; Luminescence; ViewLux uHTS Microplate Imager (PerkinElmer).
(§19) NOTES (numbers refer to Sequence numbers above)
(§20) 1, 2, 5. White Medium Binding Greiner 1536-well plates (Cat #789175-F, Greiner Bio-One, Monroe, NC); Reaction buffer: 50 mM Tris, pH 8.0, 3 mM MgCl2, 1 mM EDTA, 50 mM NaCl, 1 mM DTT, and 0.1 mg/mL BSA. Evaporation was prevented by covering assay plates with metal lids containing holes to allow gas diffusion.
(§21) 1. Six SMMTase were profiled: HNMT, GNMT, PNMT, COMT, NNMT, GAMT
(§22) 5. The corresponding substrate was used for each enzyme: HNMT - 5.3 uM Histamine; GNMT - >500 uM Glycine; PNMT - 16.2 uM Norephinephrine; COMT - 13.7 uM Norephinephrine; NNMT - 3.8 uM Nicotinamide; GAMT - 2.5 uM Guanidinoacetate.6, 8, 10. Room temperature
(§23) 6. Final reaction conditions: 10 nM COMT, 5 uM SAM, 15 uM norepinephrine, 50 mM Tris, pH 8.0, 3 mM MgCl2, 1 mM EDTA, 50 mM NaCl, 1 mM DTT, and 0.1 mg/mL BSA; refer to tables 2 and S1 for specific timing.
8. […]

The target in assay [2] is Guanidinoacetate N-methyltransferase (Homo sapiens) (UniProt Q14353). Particulars: purified enzyme, MTase-Glo SAH luminescence; measured here: GAMT inhibition; at 40 µM; stronger effect = lower value.
Source text: as §1, §2, §3, §4, §5, §6, §7, §8, §9, §10, §11, §12, §13, §14, §15, §16, §17, §18, §19, §20, §21, §22, §23
8. […]

In assay [3] the target is Histamine N-methyltransferase (Homo sapiens) (UniProt P50135). Particulars: purified enzyme, MTase-Glo SAH luminescence; measured here: HNMT inhibition; at 40 µM; stronger effect = lower value.
Source text: as §1, §2, §3, §4, §5, §6, §7, §8, §9, §10, §11, §12, §13, §14, §15, §16, §17, §18, §19, §20, §21, §22, §23
8. […]

Assay [4] addresses Nicotinamide N-methyltransferase (Homo sapiens) (UniProt P40261). Particulars: purified enzyme, MTase-Glo SAH luminescence; measured here: NNMT inhibition; at 40 µM; stronger effect = lower value.
Source text: as §1, §2, §3, §4, §5, §6, §7, §8, §9, §10, §11, §12, §13, §14, §15, §16, §17, §18, §19, §20, §21, §22, §23
8. […]

Assay [5] has as its target Phenylethanolamine N-methyltransferase (Homo sapiens) (UniProt P11086). Particulars: purified enzyme, MTase-Glo SAH luminescence; measured here: PNMT inhibition; at 40 µM; stronger effect = lower value.
Source text: as §1, §2, §3, §4, §5, §6, §7, §8, §9, §10, §11, §12, §13, §14, §15, §16, §17, §18, §19, §20, §21, §22, §23
8. […]
% is scaled to controls: 0 for no effect and ±100 for the full control effect.

`CCOCCCNc1nc2c(-c3ccccc3)nnn2c2ccccc12`: the activity change, negative = inhibition in assay [1] was -0.151%; in assay [2] it was -1.03%; in assay [3], -2.21%; in assay [4] it was -5.37%; in assay [5], -7.95%.
`CN1CCN(CC(=O)N2c3ccccc3C(=O)Nc3cccnc32)CC1`: the activity change, negative = inhibition was 2.82% in assay [1]; 7.57% in assay [2]; 12.5% in assay [3]; -13.2% in assay [4]; -7% in assay [5].
Turning to `CC(CN1C(=O)c2cc3sccc3n2CC1(C)C(=O)NC1CCCCC1)c1ccccc1` (configuration not stated), the activity change, negative = inhibition is -0.911% in assay [1]; 4.68% in assay [2]; 0.638% in assay [3]; 2.14% in assay [4]; -2.34% in assay [5].
The like results for `Cc1ccc(CN2C(=O)c3cc(-c4ccco4)nn3CC2(C)C(=O)NC2CCCCC2)cc1` (configuration not stated) were, in that order, -11.6%, 0.474%, -6.16%, -5.95% and -7.1%.
In the case of `O=C(c1ccsc1)N1CCC2(CCC2N2CCOCC2)CC1` (configuration not stated), the activity change, negative = inhibition in assay [1] is -1.38%; in assay [2], -1.95%; in assay [3], -0.059%; in assay [4] it was -2.61%; in assay [5], 2.18%.
With `Cc1cccc(N2CCN(CCNC(=O)CCc3nnc4n(C)c(=O)c5ccccc5n34)CC2)c1C`, the activity change, negative = inhibition in assay [1] was -1%; in assay [2], 0%; in assay [3], 5.48%; in assay [4], -2.77%; in assay [5] it was -0.493%.
Taken in the same sequence, the figures for `CCc1cc2c(cc3n2CC(C)(C(=O)NC2CCCCC2)N(Cc2ccccc2OC)C3=O)s1` (configuration not stated) were -0.955%, 3.55%, 3.49%, 0.713% and -2.18%.
In the case of `Cc1c(C(=O)Nc2ccc(N3CC(C)OC(C)C3)nc2)cccc1-c1ccc(OC(F)(F)F)cc1` (configuration not stated), the activity change, negative = inhibition in assay [1] was -10.4%; in assay [3] it was 2.32%.
For the compound `O=C(C1CC1)N1CCOc2ccc(CN3CCCC3)cc2C1`, the activity change, negative = inhibition in assay [1] was -3.56%; in assay [2], -0.57%; in assay [3], -28.6%; in assay [4], -4.48%; in assay [5], -8.09%.
The like results for `COc1ccc(OC)c(NC(=O)N2CCn3c(C)ccc3C2C(C)C)c1` (configuration not stated) were, in that order, 13.1%, 0%, 3.7%, -3.57% and 2.81%.
Taken in the same sequence, the figures for `CCNC1(C(N)=O)CN(c2nc(C)nc3c(-c4ccc(Cl)cc4)c(-c4ccccc4Cl)nn23)C1` were -42%, -9.23%, 3.95%, -35.9% and 0.889%.
The like results for `CCc1cc2c(cc3n2CC(C)(C(=O)NC2CCCCCC2)N(CCN2CCCCCC2)C3=O)s1` (configuration not stated) were, in that order, 0.156%, 4.78%, -16.8%, -15.2% and -4.01%.
With `COc1cc(Cl)c(C)cc1N1C(=O)CSc2c(c3ccccc3n2C)C1C(=O)NCc1ccccc1` (configuration not stated), the activity change, negative = inhibition was 6.27% in assay [1]; 4.17% in assay [2]; 4.13% in assay [3]; 2.96% in assay [4]; 0.182% in assay [5].
Taken in the same sequence, the figures for `O=C1CC2(CCN(S(=O)(=O)c3cccs3)CC2)Oc2ccccc21` were -6.83%, -2.12%, 0.155%, -19.1% and -7.03%.
In the case of `O=C(NCC(=O)N1CCOCC1)c1cccc(-c2ccsc2)c1`, the activity change, negative = inhibition is -0.15% in assay [1]; -0.889% in assay [2]; -0.958% in assay [3]; -0.515% in assay [4]; -2.71% in assay [5].
